Laboratory results from PubChem BioAssay AID624417 (National Center for Advancing Translational Sciences (NCATS), 2012).
The campaign covered roughly 410,000 compounds. About 6,400 (1.6%) were called active. This list was built around the results that the source calls inconclusive (neither active nor inactive); the mix of calls is not that of the screen. Calls come from the whole dose curve; as a rule, active = well fitted inhibition curve with a large enough effect; inconclusive = small, poorly fitted or top-dose-only effect; inactive = no such curve, though single readings can be large or run the other way. Potencies of inconclusive entries are left out as doubtful fits.

target: Glucagon-like peptide 1 receptor (Homo sapiens) (UniProt P43220); assay: qHTS of GLP-1 Receptor Inverse Agonists (Inhibition Mode); conditions: HEK293 GLP-1R CRE-luciferase, luminescence, 24 h, GLP-1R form is constitutively active; activity change, negative = inhibition: at 38.3 µM (top of the series) unless noted; note: nearly all actives have a fitted effect of over 55% in size
Chain of UniProt P43220 (P43220 whole entry, looked up): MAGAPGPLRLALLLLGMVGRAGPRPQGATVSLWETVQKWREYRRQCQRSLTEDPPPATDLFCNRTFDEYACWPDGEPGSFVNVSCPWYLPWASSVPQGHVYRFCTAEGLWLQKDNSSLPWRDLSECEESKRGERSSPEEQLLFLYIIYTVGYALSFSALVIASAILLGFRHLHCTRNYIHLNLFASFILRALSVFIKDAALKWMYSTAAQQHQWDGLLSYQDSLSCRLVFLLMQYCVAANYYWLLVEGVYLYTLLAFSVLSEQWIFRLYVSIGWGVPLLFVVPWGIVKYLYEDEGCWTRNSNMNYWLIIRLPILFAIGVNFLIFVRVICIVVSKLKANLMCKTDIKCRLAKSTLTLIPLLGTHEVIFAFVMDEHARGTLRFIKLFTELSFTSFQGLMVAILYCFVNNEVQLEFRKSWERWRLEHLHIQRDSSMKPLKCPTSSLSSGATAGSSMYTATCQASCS
Method in brief: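 Assay principle: reduced luminescence from a cAMP-responsive reporter in HEK293 cells co-expressing a constitutively active GLP-1R. Conditions: 24 hr compound incubation, 37 deg C, 5% CO2.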
% is set by controls: 0 for no effect and ±100 for the full control effect; potency is the fitted concentration of half-maximal effect; tags give direction and shape of the fitted curve.

Row | Compound | Potency | activity change, negative = inhibition
1 | COc1ccc(NC(=O)Nc2ccc(O)c3ccccc23)cc1 | inactive | –
2 | COc1ccc(NC(=O)c2cc(-c3cc(F)ccc3OC)n[nH]2)cc1OC | inconclusive [inhibitor, full curve, poor fit] | –
3 | O=C(NC1CCCCC1)c1cccc(NC(=O)c2ccccc2Cl)c1 | inconclusive [inhibitor, partial curve, poor fit] | –
4 | CCCC(c1nnnn1Cc1ccccc1)N1CCN(c2ccccc2OC)CC1 (stereo unspecified) | inconclusive [inhibitor, partial curve, poor fit] | –
5 | O=C(CC12CC3CC(CC(C3)C1)C2)NCC(=O)N1CCc2ccccc2C1 | inconclusive [inhibitor, full curve] | –
6 | C[C@H](CO)N1C[C@H](C)[C@@H](CN(C)CC2CC2)Oc2c(NC(=O)C3CC3)cccc2C1=O | inactive | –
7 | Nc1nc(CSC(=S)N2CCOCC2)nc(Nc2ccccc2)n1 | inactive | –
8 | CCCn1c(=S)[nH]c2cc(C(=O)N(CCO)Cc3ccccc3)ccc2c1=O | inconclusive [inhibitor, single point] | –
9 | COc1ccccc1CNCc1cc(=O)oc2c(C)c(C)ccc12 | inconclusive [inhibitor, single point] | –
10 | COc1ccc(CNC(=O)N2CCN(c3cccc(C)c3C)CC2)cc1OC | inconclusive [inhibitor, partial curve, poor fit] | –
11 | CCOC(=O)c1sc2nc(C)nc(SC(C)C(=O)N(C)c3ccccc3)c2c1C (stereo unspecified) | inconclusive [inhibitor, partial curve, poor fit] | –
12 | O=C(CN1CCC(n2nnc3cc(F)ccc32)CC1)Nc1ccccc1N1CCOCC1 | inactive | –
13 | C=CCn1c(-c2ccc(Cl)cc2)c[nH]c1=S | inconclusive [inhibitor, single point] | –
14 | CC(C)(C)S(=O)(=O)/C(C#N)=N/Nc1ccc(Cl)cc1 | inactive | –
15 | O=C1C=C(Nc2ccc(Cl)cc2)CC(c2ccc(Cl)cc2)C1 (stereo unspecified) | inconclusive [inhibitor, partial curve] | –
16 | CCCCCC(=O)N1C[C@@H](O)[C@H](n2cc(COC(=O)c3ccccc3)nn2)C[C@@H]1c1ccc(Cl)cc1 | inconclusive [inhibitor, single point] | –
17 | COc1ccccc1Cc1c(-c2ccc(OC)c(OC)c2)nc2cc(C)c(Br)c(C)n12 | inconclusive [inhibitor, single point] | –
18 | Cn1c(=O)c2c(nc(Sc3ncccn3)n2Cc2ccc(Cl)cc2)n(C)c1=O | inactive | –
19 | Cc1ccc(/C=C/C(=O)OCC(=O)c2ccc3c(c2)NC(=O)CO3)o1 | inconclusive [inhibitor, single point] | –
20 | Cc1cccc(-n2nnnc2SCC(=O)NC2CCCC2)c1 | inconclusive [inhibitor, full curve, poor fit] | –
21 | COCCCNS(=O)(=O)c1ccc(Oc2ncc(C(F)(F)F)cc2Cl)cc1 | inconclusive [inhibitor, single point] | –
22 | CC(CC(=O)N1CCN(c2ccccc2F)CC1)c1ccccc1 (stereo unspecified) | inconclusive [inhibitor, single point] | –

Row | Compound | Potency | activity change, negative = inhibition
23 | Cc1cc(-c2nn(-c3ccccc3F)cc2CNCCc2cnc[nH]2)c(C)s1 | inactive | –
24 | CC1CC(C)CN(CCC(=O)Nc2ccc(Br)cc2)C1 (stereo unspecified) | inconclusive [inhibitor, partial curve, poor fit] | –
25 | CC(N=Cc1c(O)c2ccccc2oc1=O)C(=O)O (stereo unspecified) | inconclusive [inhibitor, full curve, poor fit] | –
26 | CN1CCN(CCCNC(=O)c2cn(C3CCCCC3)c(=O)c3c2c2ccccc2n3C)CC1 | inconclusive [inhibitor, single point] | –
27 | CSc1ccc(/C=N/NC(=O)c2ccc(O)cc2)cc1 | inconclusive [inhibitor, single point] | –
28 | CC1CN/C(=C\C(=O)c2ccc(Br)cc2)C(=O)N1 (stereo unspecified) | inconclusive [inhibitor, single point] | –
29 | CCOC(=O)[C@]12CCC=C1N(Cc1cccc3ccccc13)C(=O)[C@H](CC(=O)NCCC(C)C)C2 | inconclusive [inhibitor, single point] | –
30 | COc1ccc(C2CC(c3cccc(Cl)c3)=NN2c2ccc(S(N)(=O)=O)cc2)cc1 (stereo unspecified) | inconclusive [inhibitor, single point] | –
31 | CN(C)CCC(=O)N1c2ccccc2Sc2ccc(Cl)cc21 | inconclusive [inhibitor, single point] | –
32 | Cc1cc2ccccc2n1CCNC(=O)C1CCCCC1 | inconclusive [inhibitor, single point] | –
33 | Cc1cccc(NC(=O)Cn2c(=O)n(Cc3nc(-c4ccccc4)no3)c(=O)c3ccccc32)c1 | inactive | –
34 | O=C(c1ccccc1)c1cnc[nH]1 | inactive | –
35 | CC(C)(C)NC(=O)Cn1cc(S(=O)(=O)Cc2ccccc2Cl)c2ccccc21 | inactive | –
36 | N#C/C(=C\Nc1ccccc1O)c1nc2ccccc2o1 | inconclusive [inhibitor, single point] | –
37 | CCOc1cc(S(=O)(=O)NCc2cccs2)ccc1Cl | inconclusive [inhibitor, single point] | –
38 | Cc1cccc(C)c1N1CCN(S(=O)(=O)c2ccc(F)cc2)CC1 | inconclusive [inhibitor, single point] | –
39 | O=C(NCc1ccc(Cl)cc1)c1cc2cccc3c2n1CCS3 | inconclusive [inhibitor, single point] | –
40 | Cc1cc2ccccc2n1CCNC(=O)c1cccs1 | inconclusive [inhibitor, single point] | –
41 | O=C(/C=C/c1ccco1)Nc1ccccn1 | inconclusive [inhibitor, partial curve] | –
42 | C=C(C)COc1ccc(-c2[nH]ncc2-c2ccc(OC)c(OC)c2)c(O)c1 | inconclusive [inhibitor, partial curve, poor fit] | –
43 | CC1CCCN(C(=O)c2ccc(CSc3nc4ccncc4n3Cc3ccccc3)cc2)C1 (stereo unspecified) | inconclusive [inhibitor, single point] | –
44 | COc1ccc(-c2csc(Nc3cccc(C)n3)n2)cc1 | inconclusive [inhibitor, single point] | –

Row | Compound | Potency | activity change, negative = inhibition
45 | CN1CCc2c(sc3nc(SCC(N)=O)n(-c4ccccc4)c(=O)c23)C1 | inactive | –
46 | CC(=O)Oc1ccccc1C1=NN(C(=O)/C=C/c2ccccc2)C(c2ccccc2)C1 (stereo unspecified) | inconclusive [inhibitor, single point] | –
47 | c1ccc(NC2=NCCN2CCCC2CCCC2)cc1 | inconclusive [inhibitor, single point] | –
48 | N=c1n(CCO)c2ccccc2n1CCOc1ccccc1 | inconclusive [inhibitor, partial curve, poor fit] | –
49 | CCOc1ccccc1N(CC(=O)Nc1ccccc1F)S(=O)(=O)c1ccccc1 | inconclusive [inhibitor, single point] | –
50 | Cc1cc(C)c(OCC(=O)Nc2nnc(-c3ccco3)o2)c(C)c1 | inactive | –
51 | COc1ccc(CNC(=O)C2CCN(C(=O)N3CCOc4ccc(C)cc43)CC2)cc1 | – | inconclusive: -35.5% [inhibitor]
52 | O=C(NCc1ccco1)c1cccc(S(=O)(=O)N2CCN(Cc3ccccc3)CC2)c1 | inconclusive [inhibitor, partial curve, poor fit] | –
53 | CCCCN1C(C(=O)c2ccccc2)=C(OC(=O)CC)c2ccccc2S1(=O)=O | inconclusive [inhibitor, partial curve, poor fit] | –
54 | Cc1nc2cc3ccccc3cc2c(=O)[nH]1 | inactive | –
55 | Cc1[nH]c2ccccc2c1/C=N/NC(=O)c1cccc([N+](=O)[O-])c1 | inactive | –
56 | CCCCNC(=O)[C@H](CSCc1ccccc1)N1Cc2ccccc2C1=O | inconclusive [inhibitor, partial curve, poor fit] | –
57 | COc1ccc(C(=O)N2CC3(C)CC2CC(C)(C)C3)cc1 (stereo unspecified) | inconclusive [inhibitor, partial curve, poor fit] | –
58 | CC(C)(/C=N/O)N(O)C=C1C=CC(=O)C=C1 | inactive | –
59 | COc1cccc(CN(C)CC(=O)Nc2cccc(S(=O)(=O)N(C)c3ccccc3)c2)c1OC | inconclusive [inhibitor, partial curve, poor fit] | –
60 | O=c1c2sc3ccccc3c2n(Cc2cccc(Cl)c2)c(=O)n1Cc1ccc(F)cc1 | inactive | –
61 | C=CCOc1ccc(/C=C2\SC(=S)N(NS(=O)(=O)c3ccc(C)cc3)C2=O)cc1 | inconclusive [inhibitor, single point] | –
62 | Cc1ccccc1CN1C(=O)C(O)(c2c[nH]c3ccccc23)c2cc(Cl)ccc21 (stereo unspecified) | inconclusive [inhibitor, single point] | –
63 | COc1ccc(S(=O)(=O)N2CCCOC2CNC(=O)C(=O)NCc2ccccc2F)cc1C (stereo unspecified) | – | inconclusive: -34% [inhibitor]
64 | Cc1cccc(N2CCN(S(=O)(=O)c3ccc4c(c3)C(C)(C)C(=O)N4C)CC2C)c1 (stereo unspecified) | inconclusive [inhibitor, partial curve] | –
65 | Cn1c(=O)c2c(nc(N3CCc4ccccc4C3)n2Cc2ccccc2F)n(C)c1=O | inconclusive [inhibitor, partial curve, poor fit] | –
66 | Cc1cc(C)n2c(NC3CCCC3)c(-c3ccc(F)cc3)nc2n1 | inconclusive [inhibitor, partial curve, poor fit] | –
